In the RNAGym collection of RNA variant scans (doi:10.1101/gad.245936.114):
This sample is rich in variants without activity.

B1: tRNA (parent)
chain: CUCUCGGUAGCCAAGUUGGUUUAAGGCGCAAGACUUUAAUUUAUCACUACGAAAUCUUGAGAUCGGGCGUUCGACUCGCCCCCGGGAGAUUUUUUCCUCGAGCAA

Variants of: B1
Assay: nonsense suppression (GFP-seq) (ratio to wild type); higher = more function; SUP4oc tRNA, yeast GFP reporter sort-seq
In short: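 Each variant's nonsense suppression (GFPSEQ) is a cell-share-weighted bin median GFP/RFP relative to the unmutated parent tRNA. Yeast with genome-integrated tRNA variants from a ~3% random-mutation library, a galactose-driven GFP ochre reporter and RFP were grown in raffinose/galactose medium with 80 mg/L adenine, then sorted into GFP/RFP bins for Illumina sequencing. Variants needed ≥100 reads and ≥30 cells.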

Variant	nonsense suppression
A30U A74C	0.0264
A30U C34A	≤ 0.026
A30U C34G	≤ 0.026
A30U C56U A62G G78A	≤ 0.026
A30U C56U U71A G88C	≤ 0.026
A30U C64G	≤ 0.026
A30U C72G	≤ 0.026
A30U C79G	≤ 0.026
A30U C80A	≤ 0.026
A30U C81A	0.0383
A30U C81G	≤ 0.026
A30U C82U A87G	≤ 0.026
A30U G59A G65A G84C	≤ 0.026
A30U G61A	0.0365
A30U G65A A89G	≤ 0.026
A30U G66A	≤ 0.026
A30U G67A G73U C81A	≤ 0.026
A30U G69C C72U	≤ 0.026
A30U G78U	≤ 0.026
A30U G85U	0.0315
A30U G88C	≤ 0.026
A30U U35G C79G G86U	≤ 0.026
A30U U35G C80A	≤ 0.026
A30U U35G G65U	≤ 0.026

Variant	nonsense suppression
A30U U55C	≤ 0.026
A30U U55C A87C A89U	0.0456
A30U U55G A62U	≤ 0.026
A30U U58A C64A	≤ 0.026
A30U U58G C79A	≤ 0.026
A30U U63A G84U	≤ 0.026
A30U U70G A74U	≤ 0.026
A30U U76G	0.0538
A31C	≤ 0.026
A31C A33G C80U	≤ 0.026
A31C A54G U63G	≤ 0.026
A31C A54U U57C U71A	≤ 0.026
A31C A62G C82U	≤ 0.026
A31C A74C	≤ 0.026
A31C A89U	≤ 0.026
A31C C34U G59A	≤ 0.026
A31C C34U G61C	≤ 0.026
A31C C56U G61U C80G	≤ 0.026
A31C C64G	≤ 0.026
A31C C68G G88A	≤ 0.026
A31C C72A G88C	≤ 0.026
A31C C75G	≤ 0.026
A31C C77A G88A	≤ 0.026
A31C C79U	≤ 0.026

Variant	nonsense suppression
A31C C80G	≤ 0.026
A31C C82G	≤ 0.026
A31C G59A G88U	≤ 0.026
A31C G65A C68G	≤ 0.026
A31C G65A C83A	≤ 0.026
A31C G65U	≤ 0.026
A31C G66C	≤ 0.026
A31C G69U	≤ 0.026
A31C G84C	≤ 0.026
A31C U35G G73A	≤ 0.026
A31C U35G G85A	≤ 0.026
A31C U35G U76G A87G	≤ 0.026
A31C U55A U58G C64U A74C	≤ 0.026
A31C U63A U70C	≤ 0.026
A31C U70A C72G	≤ 0.026
A31C U76G C82A	≤ 0.026
A31G	1.08
A31G A33G C56A G65U	≤ 0.026
A31G A54C G84U	≤ 0.026
A31G A62G G67C G73C G88C	≤ 0.026
A31G A62U	≤ 0.026
A31G A74U	0.029
A31G A74U U76A	≤ 0.026
A31G A87G A89C	≤ 0.026

Variant	nonsense suppression
A31G C34A U76A C83A G85A	≤ 0.026
A31G C56A G88A	≤ 0.026
A31G C56U	≤ 0.026
A31G C56U U70G G85A G86A	≤ 0.026
A31G C68U G78C G85C	≤ 0.026
A31G C72A	≤ 0.026
A31G C72U	≤ 0.026
A31G C75A A89G	≤ 0.026
A31G C77A	≤ 0.026
A31G C79A	≤ 0.026
A31G C80A	≤ 0.026
A31G C80G	≤ 0.026
A31G C81G	≤ 0.026
A31G C81U G84C	≤ 0.026
A31G C83G	≤ 0.026
A31G G59U G66U G69A C80G	≤ 0.026
A31G G61A	0.8
A31G G61A G69U	≤ 0.026
A31G G61C	0.275
A31G G61C G84C G86U	≤ 0.026
A31G G61U A62U	≤ 0.026
A31G G61U G69A	≤ 0.026
A31G G65A	≤ 0.026
A31G G66C C77G	≤ 0.026

Variant	nonsense suppression
A31G G66U	≤ 0.026
A31G G67C C72U	≤ 0.026
A31G G67U G69U	≤ 0.026
A31G G73C	≤ 0.026
A31G U35C	0.0321
A31G U35G	≤ 0.026
A31G U35G C77G	≤ 0.026
A31G U58A U63C	≤ 0.026
A31G U58C G61U A62C G84C	≤ 0.026
A31G U63A	0.684
A31G U63C	0.333
A31G U70C C81G	≤ 0.026
A31U	0.177
A31U A60G	≤ 0.026
A31U A62C	≤ 0.026
A31U A62U	0.0539
A31U A62U G65C C82A	≤ 0.026
A31U A74U	≤ 0.026
A31U A89C	≤ 0.026
A31U C34U	≤ 0.026
A31U C34U C80G G85C	≤ 0.026
A31U C34U U55C	≤ 0.026
A31U C56A U70C	≤ 0.026
A31U C56U	≤ 0.026

Variant	nonsense suppression
A31U C64A G66U G67C C79A	≤ 0.026
A31U C68U G69C	≤ 0.026
A31U C80G G84A	≤ 0.026
A31U C81A C82G	≤ 0.026
A31U C82G	≤ 0.026
A31U C83A	≤ 0.026
A31U G32A A60C C80G	≤ 0.026
A31U G32U	≤ 0.026
A31U G59C	≤ 0.026
A31U G61C	≤ 0.026
A31U G65C	≤ 0.026
A31U G66A U76C	≤ 0.026
A31U G66C	≤ 0.026
A31U G67A C77U	≤ 0.026
A31U G67U G88U	≤ 0.026
A31U G69U	≤ 0.026
A31U G73U	≤ 0.026
A31U G78U G88U	≤ 0.026
A31U G84U	≤ 0.026
A31U G88A	≤ 0.026
A31U G88U	≤ 0.026
A31U U55A	≤ 0.026
A31U U55C A74G G78A G86C	≤ 0.026
A31U U55G A62G G85U	≤ 0.026

Variant	nonsense suppression
A31U U55G A74G	≤ 0.026
A31U U55G C77U	≤ 0.026
A31U U58A	≤ 0.026
A31U U76C	≤ 0.026
A31U U76G	≤ 0.026
G32A	≤ 0.026
G32A A33U U63A G67C	≤ 0.026
G32A A60C G86A	≤ 0.026
G32A A62G U71G G78A G85A	≤ 0.026
G32A A74G	≤ 0.026
G32A A89G	≤ 0.026
G32A C34G	≤ 0.026
G32A C34G U35G U58A	≤ 0.026
G32A C56G	≤ 0.026
G32A C68U	≤ 0.026
G32A C80G A89C	≤ 0.026
G32A C80U	≤ 0.026
G32A C81G	≤ 0.026
G32A C83A A87C	≤ 0.026
G32A G59A	≤ 0.026
G32A G61C A89G	≤ 0.026
G32A G61C G67U C72U	≤ 0.026
G32A G61C U70C	≤ 0.026
